Assay results reported in the supplement of paper PMC8728848.
The list shows a part of the results.

Legend:
Assay in all cases: glycan array binding signal (z-score within array); higher = stronger binding
Details in all cases: glycan notation: IUPAC condensed, linker removed
[1] = biological target: Gal(a1-3)Gal(b1-3)GlcNAc
Method in brief: (§1)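 Glycan array data were curated from 3228 arrays in the Consortium for Functional Glycomics database and kept only where the protein sequence was available. Glycan names were converted to IUPAC-condensed notation, and columns mapping to the same glycan were averaged. The binding signal is a within-array Z-score, averaged across arrays of the same protein sequence at different concentrations or buffers and across linkers. Negative Z-scores can be read as non-binding.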

[2] = biological target: Gal(a1-3)Gal(b1-3)GlcNAc(b1-2)Man
Method in brief: as §1

[3] = biological target: Gal(a1-3)Gal(b1-3)GlcNAc(b1-2)Man(a1-3)[Gal(a1-3)Gal(b1-3)GlcNAc(b1-2)Man(a1-6)]Man(b1-4)GlcNAc(b1-4)GlcNAc
Method in brief: as §1

[4] = biological target: Gal(a1-3)Gal(b1-3)GlcNAc(b1-3)GalNAc
Method in brief: as §1

[5] = biological target: Gal(a1-3)Gal(b1-3)GlcNAc(b1-6)GalNAc
Method in brief: as §1

[6] = biological target: Gal(a1-3)Gal(b1-3)[Fuc(a1-4)]GlcNAc(b1-2)Man(a1-3)[Gal(a1-3)Gal(b1-3)[Fuc(a1-4)]GlcNAc(b1-2)Man(a1-6)]Man(b1-4)GlcNAc(b1-4)GlcNAc
Method in brief: as §1

[7] = biological target: Gal(a1-3)Gal(b1-4)Glc
Method in brief: as §1

[8] = biological target: Gal(a1-3)Gal(b1-4)GlcNAc
Method in brief: as §1

[9] = biological target: Gal(a1-3)Gal(b1-4)GlcNAc(b1-2)Man
Method in brief: as §1

[10] = biological target: Gal(a1-3)Gal(b1-4)GlcNAc(b1-2)Man(a1-3)[Gal(a1-3)Gal(b1-4)GlcNAc(b1-2)Man(a1-6)]Man(b1-4)GlcNAc(b1-4)GlcNAc
Method in brief: as §1

[11] = biological target: Gal(a1-3)Gal(b1-4)GlcNAc(b1-3)GalNAc
Method in brief: as §1

[12] = biological target: Gal(a1-3)Gal(b1-4)GlcNAc(b1-6)GalNAc
Method in brief: as §1

[13] = biological target: Gal(a1-3)Gal(b1-4)[Fuc(a1-3)]GlcNAc
Method in brief: as §1

[14] = biological target: Gal(a1-3)Gal(b1-4)[Fuc(a1-3)]GlcNAc(b1-2)Man(a1-3)[Gal(a1-3)Gal(b1-4)[Fuc(a1-3)]GlcNAc(b1-2)Man(a1-6)]Man(b1-4)GlcNAc(b1-4)GlcNAc
Method in brief: as §1

[15] = biological target: Gal(a1-3)GalNAc
Method in brief: as §1

[16] = biological target: Gal(a1-3)[Gal(a1-4)]Gal(b1-4)GlcNAc
Method in brief: as §1

[17] = biological target: Gal(a1-4)Gal(b1-3)GlcNAc(b1-2)Man(a1-3)[Gal(a1-4)Gal(b1-3)GlcNAc(b1-2)Man(a1-6)]Man(b1-4)GlcNAc(b1-4)GlcNAc
Method in brief: as §1

[18] = biological target: Gal(a1-4)Gal(b1-4)Glc
Method in brief: as §1

[19] = biological target: Gal(a1-4)Gal(b1-4)GlcNAc
Method in brief: as §1

[20] = biological target: Gal(a1-4)Gal(b1-4)GlcNAc(b1-2)Man(a1-3)[Gal(a1-4)Gal(b1-4)GlcNAc(b1-2)Man(a1-6)]Man(b1-4)GlcNAc(b1-4)GlcNAc
Method in brief: as §1

[21] = biological target: Gal(a1-4)Gal(b1-4)GlcNAc(b1-3)Gal(b1-4)Glc
Method in brief: as §1

[22] = biological target: Gal(a1-4)GlcNAc
Method in brief: as §1

[23] = biological target: Gal(a1-6)Glc
Method in brief: as §1

[24] = biological target: Gal(b1-2)Gal
Method in brief: as §1

[25] = biological target: Gal(b1-3)Gal
Method in brief: as §1

[26] = biological target: Gal(b1-3)Gal(b1-4)GlcNAc
Method in brief: as §1

[27] = biological target: Gal(b1-3)GalNAc
Method in brief: as §1

[28] = biological target: Gal(b1-3)GalNAc(a1-3)[Fuc(a1-2)]Gal(b1-4)Glc
Method in brief: as §1

[29] = biological target: Gal(b1-3)GalNAc(a1-3)[Fuc(a1-2)]Gal(b1-4)GlcNAc
Method in brief: as §1

[30] = biological target: Gal(b1-3)GalNAc(b1-3)Gal
Method in brief: as §1

[31] = biological target: Gal(b1-3)GalNAc(b1-3)Gal(a1-4)Gal(b1-4)Glc
Method in brief: as §1

[32] = biological target: Gal(b1-3)GalNAc(b1-4)Gal(b1-4)Glc
Method in brief: as §1

[33] = biological target: Gal(b1-3)GalNAc(b1-4)[Neu5Ac(a2-3)]Gal(b1-4)Glc
Method in brief: as §1

[34] = biological target: Gal(b1-3)GlcNAc
Method in brief: as §1

[35] = biological target: Gal(b1-3)GlcNAc(a1-3)Gal(b1-4)GlcNAc
Method in brief: as §1

[36] = biological target: Gal(b1-3)GlcNAc(a1-6)Gal(b1-4)GlcNAc
Method in brief: as §1

[37] = biological target: Gal(b1-3)GlcNAc(b1-2)Man
Method in brief: as §1

[38] = biological target: Gal(b1-3)GlcNAc(b1-2)Man(a1-3)[Gal(b1-3)GlcNAc(b1-2)Man(a1-6)]Man(b1-4)GlcNAc(b1-4)GlcNAc
Method in brief: as §1

B1: Als3-2 (Candida albicans) (protein)
chain: KTITGVFNSFNSLTWSNAATYNYKGPGTPTWNAVLGWSLDGTSASPGDTFTLNMPCVFKFTTSQTSVDLTAHGVKYATCQFQAGEEFMTFSTLTCTVSNTLTPSIKALGTVTLPLAFNVGGTGSSVDLEDSKCFTAGTNTVTFNDGGKKISINVDFERSNVDPKGYLTD
[1]
  glycan array binding signal (z-score): -0.231
[2]
  glycan array binding signal (z-score): -0.393
[3]
  glycan array binding signal (z-score): -0.235
[4]
  glycan array binding signal (z-score): -0.439
[5]
  glycan array binding signal (z-score): -0.379
[6]
  glycan array binding signal (z-score): -0.074
[7]
  glycan array binding signal (z-score): -0.649
[8]
  glycan array binding signal (z-score): -0.638
[9]
  glycan array binding signal (z-score): -0.476
[10]
  glycan array binding signal (z-score): -0.31
[11]
  glycan array binding signal (z-score): 0.715
[12]
  glycan array binding signal (z-score): -0.664
[13]
  glycan array binding signal (z-score): -0.606
[14]
  glycan array binding signal (z-score): -0.582
[15]
  glycan array binding signal (z-score): -0.308
[16]
  glycan array binding signal (z-score): -0.308
[17]
  glycan array binding signal (z-score): 1.33
[18]
  glycan array binding signal (z-score): 0.276
[19]
  glycan array binding signal (z-score): 0.184
[20]
  glycan array binding signal (z-score): -0.609
[21]
  glycan array binding signal (z-score): -0.608
[22]
  glycan array binding signal (z-score): -0.593
[23]
  glycan array binding signal (z-score): -0.625
[24]
  glycan array binding signal (z-score): -0.332
[25]
  glycan array binding signal (z-score): -0.653
[26]
  glycan array binding signal (z-score): 1.7
[27]
  glycan array binding signal (z-score): -0.398
[28]
  glycan array binding signal (z-score): -0.076
[29]
  glycan array binding signal (z-score): 0.378
[30]
  glycan array binding signal (z-score): -0.056
[31]
  glycan array binding signal (z-score): -0.55
[32]
  glycan array binding signal (z-score): -0.166
[33]
  glycan array binding signal (z-score): 0.245
[34]
  glycan array binding signal (z-score): -0.597
[35]
  glycan array binding signal (z-score): -0.203
[36]
  glycan array binding signal (z-score): 1.31
[37]
  glycan array binding signal (z-score): -0.2
[38]
  glycan array binding signal (z-score): 1.14
